Measurements reported in the supplement of paper PMC3334620.
Over roughly 33,000 sequences, “E-score (-0.5 to 0.5)” has its median near -0.053; the highest 2% begin near 0.37. The list shows a part of the results.

The sequences below were run against Hap1 (UniProt P0CE41) (assay: PBM E-score (8-mer binding enrichment) (E-score (-0.5 to 0.5)); higher = stronger / more preferred TF binding; most listed sequences are background and not binding sites). Conditions: protein concentration: 200 nM; construct: GST-DNA-binding domain.
Procedure, shortened: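 Universal all-10-mer Agilent arrays, double-stranded by primer extension on fresh or once-stripped slides, were probed with about 100-200 nM GST-tagged yeast transcription factors made by PURExpress. Fluorescent anti-GST detected bound protein, and masliner normalised the scans. E-scores from the Universal PBM Analysis Suite were given to each ungapped eight-base word pooled with its reverse complement.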

Sequence of UniProt P0CE41 (P0CE41 whole entry, the tested form may be a part): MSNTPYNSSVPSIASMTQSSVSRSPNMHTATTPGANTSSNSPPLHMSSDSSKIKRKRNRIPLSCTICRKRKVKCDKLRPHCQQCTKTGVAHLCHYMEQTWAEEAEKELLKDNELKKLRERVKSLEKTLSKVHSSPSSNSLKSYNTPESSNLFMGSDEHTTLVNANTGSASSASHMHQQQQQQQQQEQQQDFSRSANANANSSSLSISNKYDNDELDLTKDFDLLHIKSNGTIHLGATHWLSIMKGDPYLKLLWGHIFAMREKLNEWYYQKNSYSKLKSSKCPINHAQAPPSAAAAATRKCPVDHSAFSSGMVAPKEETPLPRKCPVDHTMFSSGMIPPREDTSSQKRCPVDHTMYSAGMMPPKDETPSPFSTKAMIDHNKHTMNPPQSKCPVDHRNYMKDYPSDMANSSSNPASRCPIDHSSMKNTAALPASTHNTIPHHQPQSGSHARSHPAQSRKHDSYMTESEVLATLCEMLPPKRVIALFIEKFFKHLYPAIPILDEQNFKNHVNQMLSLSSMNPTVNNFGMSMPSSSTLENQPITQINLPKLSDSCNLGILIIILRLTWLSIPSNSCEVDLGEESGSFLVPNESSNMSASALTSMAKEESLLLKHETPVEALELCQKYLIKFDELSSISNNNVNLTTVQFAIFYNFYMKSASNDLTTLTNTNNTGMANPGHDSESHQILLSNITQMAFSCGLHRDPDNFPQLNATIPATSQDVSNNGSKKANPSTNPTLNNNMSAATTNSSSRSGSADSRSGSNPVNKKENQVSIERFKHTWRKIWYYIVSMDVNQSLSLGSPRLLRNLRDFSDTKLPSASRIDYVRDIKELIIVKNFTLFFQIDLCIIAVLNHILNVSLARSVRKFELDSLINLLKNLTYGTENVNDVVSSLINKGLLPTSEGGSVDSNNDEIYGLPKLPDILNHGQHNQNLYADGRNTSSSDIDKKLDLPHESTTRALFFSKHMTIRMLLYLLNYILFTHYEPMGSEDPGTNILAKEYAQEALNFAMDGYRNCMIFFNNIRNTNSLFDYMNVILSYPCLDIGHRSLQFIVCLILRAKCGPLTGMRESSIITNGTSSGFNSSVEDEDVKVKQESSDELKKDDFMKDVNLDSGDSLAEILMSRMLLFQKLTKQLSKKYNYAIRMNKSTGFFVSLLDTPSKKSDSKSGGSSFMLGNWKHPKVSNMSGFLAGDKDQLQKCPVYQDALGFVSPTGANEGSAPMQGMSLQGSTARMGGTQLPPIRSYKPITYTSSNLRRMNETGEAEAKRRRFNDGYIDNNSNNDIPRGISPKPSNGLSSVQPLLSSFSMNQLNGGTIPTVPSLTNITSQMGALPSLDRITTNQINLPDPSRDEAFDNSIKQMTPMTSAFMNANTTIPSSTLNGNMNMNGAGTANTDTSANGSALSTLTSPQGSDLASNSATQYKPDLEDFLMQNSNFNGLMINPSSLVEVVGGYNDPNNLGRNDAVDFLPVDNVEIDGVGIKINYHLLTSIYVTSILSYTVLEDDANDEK

Sequence | PBM E-score
AAATGTGA | -0.186
AGCGCTCA | -0.0312
CCTTGTCA | -0.311
CGAATTCG | 0.228
GAACGCGA | -0.061
AGAGCAGA | -0.17
ATATGTAC | 0.0573
CGCGCACC | 0.0372
ACCGTATA | -0.119
AGACGGAT | 0.0909
ATAGAAAA | -0.236
AAGCCGCT | 0.14
CAGAGGCA | -0.2
ACGTGTAC | -0.157
AGTATAAT | 0.0488
CTCGCCGA | 0.276
ATCGGATC | 0.339
CAATCCAA | -0.253
AGGCGTTA | 0.0359
CAAAGATA | -0.148
TACTACCA | -0.298
CGTCCAGA | -0.168
GCATATCC | 0.0624
ATCTTGCA | 0.00822
CCGGACAC | 0.351

Sequence | PBM E-score
GAAGCACC | -0.177
GACTACTC | 0.0831
CCGTGCAG | 0.129
ACTTGGGC | -0.0344
CCTAAGAG | -0.121
AGAGAACC | -0.161
TGGCCCCA | -0.196
ATACGGAA | 0.33
CTAGATAG | -0.139
ACCTGCCT | -0.122
CCGATCGA | 0.325
AGTCACGC | -0.197
TCCCAGGA | -0.167
GATAGAAA | -0.0692
AAATCTTC | 0.0751
GAATTCCA | 0.0237
AAAAATAA | -0.0273
TTAAGAAA | -0.136
AGAAAATA | -0.0987
CACGTGGG | -0.229
CCCGGTCC | 0.365
GCTCAAGC | -0.202
AAGCTTGC | -0.255
GGACGCTA | 0.0559
ACCGCGAC | 0.0253

Sequence | PBM E-score
CCGTAGAA | -0.0878
GGCCCATA | 0.0917
CGGCAGTA | 0.299
AGGTAGAG | -0.0946
ACAGCGAC | -0.215
ATTCCCGG | 0.395
CACATTCC | 0.0842
CCCATAGG | -0.0829
CCTTGGCA | -0.232
GTATCAAA | -0.186
GTTATCGA | 0.165
ATGCGCGC | 0.217
ACTTAAAA | 0.0671
ACGGTTGC | -0.063
AAGGGGCC | -0.0696
CTGGCCAA | -0.142
CGGCTATC | 0.286
CACCTCGC | 0.135
AGTTATTG | -0.116
CAAGCGTA | -0.264
AAGCCCTA | -0.139
CTTAACAC | -0.135
CCCTGCAA | -0.168
ACGGGAGT | 0.138
AGGCAGAG | -0.234

Sequence | PBM E-score
AACTATTC | 0.0539
ACTCCACC | -0.0311
GGTGGTCA | -0.0436
TGTGGAAA | -0.016
ATCTTTTC | 0.0446
AGAGAACA | -0.157
ACATAGCC | 0.0649
ATTCCCGC | 0.318
CCCGCTGA | 0.106
CCCTATTC | 0.146
AGGAGCCG | 0.124
CCCGGCGA | 0.337
CCCCTAAC | -0.12
CATCACAG | -0.258
GCAAACGA | -0.121
ACGCGAGA | -0.181
CTATCTTC | -0.13
GAGCAAAC | -0.00159
GAAGCGGA | 0.186
AGGACTAT | -0.0986
CCAACGCG | 0.0685
AACGCCAT | -0.145
ATGACCAT | -0.121
CACGAAGG | -0.0928
CTGCATGA | -0.298

Sequence | PBM E-score
AACGACGT | -0.146
GGAACCGA | 0.27
AGTATATG | -0.0866
CATTGACA | -0.213
CCCTCGTA | -0.0221
CGCCCGGC | 0.335
AGGGCGTG | 0.0258
GGAGTACC | 0.00594
ATGAAATC | -0.111
ACACCCGA | 0.305
GCTGAACC | 0.0337
AAGATTCC | 0.0921
CCCCCTAC | -0.202
CCAATGAA | -0.225
CGTGTATC | 0.0108
ACCACTGA | -0.312
ATATAGTC | 0.0135
AGAATCCT | -0.18
TAGTGTCA | -0.227
AGCTTCAA | -0.161
TCCCGGAA | 0.397
AAGACAGC | -0.01
ATTTTAAC | 0.0876
ATTCACCC | 0.217
CTCGTTTC | -0.00994

Sequence | PBM E-score
CCGTAATA | 0.251
CGAGGCAC | 0.0885
CGAGAGAA | 0.0838
GGAATTAC | 0.375
CGCTCTCA | -0.205
AATAGGAT | 0.0961
TACGTTGA | -0.223
GAGGTTGC | 0.00013
AGAACTCC | 0.0259
GTGGGGTA | 0.211
ACTCGTTG | -0.304
TGTTCGAA | -0.209
AACATGAA | -0.0851
GAAATCGA | 0.137
CCCTTCGA | -0.0916
ATGACGGG | 0.134
ATTACATG | 0.0369
CATGGAAG | -0.0163
AAGCAATC | -0.154
AAAGTAGC | -0.0475
ACTCTGTA | -0.282
GTTCGAAA | -0.0341
AAGTTTTA | -0.0495
ATAGGTTC | -0.066
AACCCCCT | -0.362

Sequence | PBM E-score
CGTTATCA | 0.105
CTTATGAA | -0.129
TACAGTAA | -0.29
CATCTCCG | 0.435
CCCACTCC | 0.00898
AAGCCACA | -0.232
ATTCTTCC | 0.104
GCACACCA | -0.063
CCGCCATA | 0.257
ATGTCTGC | 0.101
AACGACCC | 0.00262
GCACTATA | -0.136
TCGCGTCA | -0.0875
CCCGGAGC | 0.354
GTCCATTA | 0.0161
CCGATAAA | 0.461
CACAGACA | -0.186
CTCCTAAG | -0.0623
GGGTGATA | 0.167
AGGGGCCG | -0.0311
ATGCATTG | -0.194
CGCGATAA | 0.115
CAGATGGA | -0.0278
ACTACACA | -0.0805
AACAGGTC | -0.267

Sequence | PBM E-score
ATGAAAAC | 0.057
TGACAGAA | -0.247
GATATACA | 0.208
AGAGTCCG | 0.288
AGAGTTCC | 0.0898
ACCTTGTC | -0.242
ACTCCGTG | 0.292
AAACTGGG | -0.122
CTATGCCC | 0.0184
ATTACGCA | 0.123
CGAGGTCC | 0.273
AAACCTCT | 0.0165
ATTCCATG | 0.134
GACCATCC | 0.024
AGCACTAA | -0.168
AGGTAGGC | -0.0915
CACGTCGA | -0.183
CATTGAGG | -0.206
CCTTGGTA | -0.0146
AGTTCTCC | 0.0689
CTAAATCC | 0.386
GCTTGTAA | -0.0451
ATCCATGG | -0.00375
CGGGATTC | 0.292
AACGCTAA | -0.301

Sequence | PBM E-score
CTTTGGTC | 0.102
ATGTTTCA | -0.21
GAAGGGAC | -0.136
AAGACCAT | -0.167
CCGGGACC | 0.35
CGTATATA | -0.0266
CTCACAAG | -0.217
GAGATCAA | 0.0281
AAGCTGAT | 0.0128
CCTATAGA | -0.198
CCCCGAAG | 0.311
ACAAGTAC | -0.0629
CACAGCAC | -0.143
GGCTACAC | -0.292
AATTTTCG | 0.153
AGGACAAG | -0.191
GGATCAAA | 0.0717
AAAGACGA | -0.199
GGATCGCC | 0.0272
GACAGGTA | -0.0971
AGGGAGAG | -0.332
ACATCGGT | 0.332
AAGAGCAA | -0.111
CCCATAGA | -0.244
CGCTAAAA | 0.0758

Sequence | PBM E-score
GTGCGCAC | 0.197
ACCGCCAG | 0.0985
AAGTGACG | 0.0634
GAAAGTAA | -0.014
CTTGACCC | -0.0231
AGATCAGG | -0.113
GTTCTATA | -0.15
CTTCATGC | -0.0499
AGCGTCAC | -0.0748
AATGACAT | -0.0522
TAAAGTAA | -0.194
ACCTCAAG | -0.18
CATTGAAC | -0.0972
GATATTCC | 0.241
GGCGCGTA | 0.0722
CCCCCCTA | -0.167
CGCATATA | 0.0759
TATGCACA | -0.144
TGGGATAA | -0.0448
ACTTTACC | 0.00924
TCCTAGGA | -0.187
ATGATTCC | 0.0894
GAGTCGAA | -0.00726
CTTCAGGA | -0.0903
AGTCAAAA | -0.176

Sequence | PBM E-score
CCAGCATA | -0.259
ACACTTCA | -0.0611
CCTGATAG | -0.208
ATCGGTCC | 0.374
AGAGCTCG | 0.0657
AGGCTTGC | -0.169
GTCTCGGA | 0.358
CTGCGGAC | 0.321
CTAGTTAA | -0.183
AACTCGGC | 0.316
GGGTCCAC | 0.046
ACTGCAGA | -0.18
ACCACAGC | -0.127
CTGGAAAA | -0.119
TACTAAGA | 0.0084
CGACAGAG | -0.102
AAGACTGG | -0.0967
CGAGTCCG | 0.345
CCTCGTCG | 0.145
CAGGGGTC | -0.213
TGGAGCCA | -0.23
AGATAGGC | -0.0855
AGCACGGG | 0.0369
CATACCTA | -0.117
ACGTGCCG | -0.0134

Sequence | PBM E-score
CAATAGAG | -0.152
GGAGCAGA | 0.0389
AGAAGGTC | -0.212
GAGGTGGA | 0.0581
GCCGAGGA | 0.294
ACCGAAGG | 0.285
CGCGTAGA | 0.0333
AGAAGTAT | -0.0923
TCGTGACA | -0.0639
CCCCCGGG | 0.324
ACCCTTCA | -0.115
CCTTATAG | -0.163
TAGATTGA | 0.0635
CCATATCG | 0.318
ACTAAGCC | 0.094
GAAACAGA | -0.119
TACCCACA | -0.0535
TCTCCCCA | -0.00501
ATGCCGGA | 0.4
GGCCGGTA | 0.344
TAAGGGTA | -0.165
CAATAACC | 0.114
AACTACTT | -0.158
CAAGCGGG | 0.191
GGGGTCAC | -0.116

Sequence | PBM E-score
AGAAATTA | 0.0509
AGAGGAGA | -0.242
CAACGAAC | -0.0321
CTGCCGGC | 0.322
GTGGAACA | -0.0504
CTACCTAC | -0.0262
CACAGGTA | -0.309
ATTTCCGG | 0.459
ATCTTCAG | -0.0499
GTGTGGCA | -0.107
AAATTGGT | 0.117
CACCTTGG | -0.0199
CTGCCGGA | 0.286
GCAGGCTA | -0.169
ACGTGGGC | -0.204
ACTGAGAC | -0.277
ATGGCTTC | -0.236
ATTACGCC | -0.0918
ACGCCGAC | 0.299
AAATATCC | 0.22
TCGGTTAA | 0.363
CGGGTGGA | 0.31
CTGCGAGC | 0.111
AACCGAAT | 0.301
ATCTGTCA | -0.0601

Sequence | PBM E-score
CTCGATTC | -0.17
GCAAGTAA | 0.0581
CCGGCTCA | 0.312
ATGCCGAG | 0.285
ATTCCAAT | -0.188
AAGGCGCG | -0.0965
ATGCAATC | -0.113
ATGGACTA | -0.0822
CGTATGAA | -0.0342
CTTCTTTA | 0.0253
CACACGAA | -0.179
AAACCCGC | 0.335
TGGTTACA | -0.173
ATACCTTC | -0.0671
ACCAGAAG | -0.297
ACAGACTA | -0.246
GTAAATTA | -0.0234
CAGGCCGC | -0.0693
ACCTTCAG | -0.243
